# Reference: article PMC4336329 (PLoS ONE, 2015)
# The campaign covered roughly 310,000 compounds. About 14,000 (4.5%) showed an effect of 50% or more. Effects have a minus sign here. Some of the results follow.
# Molecular target: human ether-à-go-go-related gene (hERG) potassium channel (human, UniProt Q12809)
# Assay: primary screen, population patch clamp on CHO cells stably expressing hERG
# 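Further: peak tail current of the secondary pulse compared with the same well before compound.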
# human ether-à-go-go-related gene (hERG) potassium channel, sequence (Q12809 whole entry, looked up): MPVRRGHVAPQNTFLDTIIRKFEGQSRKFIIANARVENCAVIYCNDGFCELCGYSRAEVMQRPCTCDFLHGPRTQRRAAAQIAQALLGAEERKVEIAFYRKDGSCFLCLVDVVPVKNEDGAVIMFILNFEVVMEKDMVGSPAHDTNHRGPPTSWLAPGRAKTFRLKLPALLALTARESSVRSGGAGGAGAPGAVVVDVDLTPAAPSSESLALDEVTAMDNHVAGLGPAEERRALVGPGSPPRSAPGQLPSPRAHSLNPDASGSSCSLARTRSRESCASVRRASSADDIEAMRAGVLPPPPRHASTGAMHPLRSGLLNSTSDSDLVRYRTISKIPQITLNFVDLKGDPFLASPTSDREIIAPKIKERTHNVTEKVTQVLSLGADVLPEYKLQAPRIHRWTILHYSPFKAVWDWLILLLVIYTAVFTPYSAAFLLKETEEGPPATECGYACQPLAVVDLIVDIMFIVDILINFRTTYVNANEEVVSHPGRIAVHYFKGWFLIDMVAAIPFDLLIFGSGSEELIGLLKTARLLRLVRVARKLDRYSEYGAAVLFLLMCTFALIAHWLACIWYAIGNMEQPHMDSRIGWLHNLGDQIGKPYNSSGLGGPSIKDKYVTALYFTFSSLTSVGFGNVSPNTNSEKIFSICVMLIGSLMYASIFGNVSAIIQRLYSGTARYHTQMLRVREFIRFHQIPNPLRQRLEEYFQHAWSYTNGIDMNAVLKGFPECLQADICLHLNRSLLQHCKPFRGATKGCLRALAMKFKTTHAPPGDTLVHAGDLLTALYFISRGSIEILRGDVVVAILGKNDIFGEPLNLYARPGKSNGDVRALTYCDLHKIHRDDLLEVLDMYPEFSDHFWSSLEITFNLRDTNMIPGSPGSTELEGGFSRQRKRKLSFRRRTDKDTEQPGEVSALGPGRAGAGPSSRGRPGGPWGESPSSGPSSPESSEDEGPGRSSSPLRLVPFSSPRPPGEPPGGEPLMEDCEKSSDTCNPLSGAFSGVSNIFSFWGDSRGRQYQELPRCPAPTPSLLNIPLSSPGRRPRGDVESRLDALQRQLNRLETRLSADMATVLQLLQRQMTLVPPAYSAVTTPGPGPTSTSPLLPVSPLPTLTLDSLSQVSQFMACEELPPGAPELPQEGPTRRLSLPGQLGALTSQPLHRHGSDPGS
row,SMILES,"hERG current change (%, negative = inhibition) at 10uM [%]"
1,COc1cc(CN2CCN(c3cc(C)ccc3C)CC2)ccc1O,-33.2
2,FC(F)(F)c1ccc(C2[C@H]3CN(Cc4ccc(-c5ccccc5)cc4)[C@H](c4ccccc4)C34CC2(c2cccnc2)C4)cc1 (some centres unmarked),14.9
3,COc1ccc(-n2c(-c3ccc(C)cc3)n[nH]c2=S)cc1,15
4,CC(C)=N/N=C(\c1cccc([N+](=O)[O-])c1)C12CN3CN(CN(C3)C1)C2,7.66
5,Cn1c(-c2ccc(-c3ccccc3)cc2)c[nH]c1=S,6.28
6,COC(=O)CSc1cc(C)nc(NC(C)=O)n1,3.82
7,CC(=O)Nc1ccc(NC(C)=O)c(NC2OCC(O)C(O)C2O)c1 (centres unmarked),11.7
8,CCC(C)NC(=O)c1cc(-c2ccc(OC)cc2)on1 (centres unmarked),-10.1
9,Cc1ccc(S(=O)(=O)N2CC(O)C[C@H]2C(=O)OCC(=O)c2ccccc2)cc1 (some centres unmarked),-8.42
10,O=C1C(Cl)=C(NS(=O)(=O)c2ccc([N+](=O)[O-])cc2)C(=O)c2ccccc21,10.6
11,Cc1cc2c(cc1S(=O)(=O)NCC(C)c1ccccc1)n(C)c(=O)c(=O)n2C (centres unmarked),-22.1
12,COC(=O)c1ccc(-c2ccc(C(c3c(C)[nH][nH]c3=O)c3c(C)[nH][nH]c3=O)o2)cc1,32.9
13,O=C(CC1OC(=O)c2ccccc21)Nc1ccc(Cl)c(S(=O)(=O)N2CCCCC2)c1 (centres unmarked),-23.1
14,CNC(=S)N/N=C/C1=CCC2CC1C2(C)C (centres unmarked),-3.84
15,Cc1cc[n+](-c2[nH]c(=O)sc2/C=N/NC(=O)c2ccccc2[O-])cc1C,-4.76
16,Cc1ccc(-n2nc(-c3cccs3)cc2C(=O)NCC2CCCO2)c(C)c1 (centres unmarked),-40.3
17,COCC(C)NC(=O)NC(=O)c1ccc(Cl)cc1 (centres unmarked),-0.149
18,C=CCO/N=C(/C)c1ccc(Oc2cnccn2)cc1,-4.06
19,O=C(Nc1ccc2oc(-c3ccccc3F)nc2c1)c1ccco1,-16.1

row,SMILES,"hERG current change (%, negative = inhibition) at 10uM [%]"
1,O=[N+]([O-])c1cnc[nH]1,14.5
2,CS(=O)(=O)Oc1ccc(/C=N/NC(=O)c2ccncc2)cc1,-2.46
3,N#Cc1cnc(Sc2ccccc2)nc1,4.21
4,Nc1c(C(=O)N/N=C/c2ccc(OCc3ccccc3)cc2)cnn1-c1ccccc1,26
5,CCN(CC)CCn1c2c(c(SCC(=O)Nc3nc4ccccc4s3)nc1=O)CCC2,-58.3
6,Cc1c(C(=O)Nc2nccs2)oc2ccc(F)cc12,4.22
7,O=C(CCCOc1cccc(Br)c1)NC1CCC(O)CC1 (centres unmarked),4.76
8,Cc1cccn2c(=O)c3cc(C(=O)NCCc4ccccc4)sc3nc12,-6.84
9,COC(=O)c1cc(Br)c(=O)n(CCc2ccccc2)c1,-9.76
10,CCN(CC)CC(=O)Nc1cccc2c1C(=O)c1ccccc1C2=O,11.5
11,COc1ccc(S(=O)(=O)N2CCOC23CCN(S(=O)(=O)c2ccccc2)CC3)cc1,8.72
12,Cc1cc(C(=O)c2cnc(/N=C/N(C)C)s2)cc(C)c1O,5.94
13,CC(=O)c1ccc(N2CCN(C(=O)c3ccc4c(c3)OCO4)CC2)cc1,-45.4
14,CNC(C)C#Cc1ccc2c(=O)c3cc(C)c(C)cc3oc2c1 (centres unmarked),-6.27
15,Cc1ccc(NS(=O)(=O)c2ccc3c(c2)CC(=O)N3)c(C)c1,-14.2
16,O=C(CCS(=O)(=O)c1cccc2nonc12)N1CC(=O)N(CCc2ccccc2)C(=O)C1,-15.6
17,COc1cccc(C(=O)C[n+]2ccccc2/C=N/O)c1.[Br-],16.8
18,N#CCSc1nc2ccc(N3CCCCC3)cc2c(=O)n1Cc1ccccc1,10.8
19,O=C(CSc1ncccc1-c1nc2ccccc2[nH]1)Nc1ccc2c(c1)OCCO2,-30.8

row,SMILES,"hERG current change (%, negative = inhibition) at 10uM [%]"
1,Cc1cc(C)c(OCC(=O)Nc2ccc(NC(=O)c3ccco3)cc2)c([N+](=O)[O-])c1,22.7
2,O=C(Nc1nnc(CC(=O)N2CCOCC2)s1)c1cccs1,15.9
3,O=C(O)C(=O)O.O=C(c1ccccc1F)N1CCN(Cc2cccc(Cl)c2)CC1,-25.4
4,[N-]=[N+]=NCC/C=C\C1NS(=O)(=O)OCC1O (centres unmarked),8.7
5,CC(C)(C)c1csc(NC(=O)Cn2c(=O)oc3ccccc32)n1,-26.1
6,CN(CC(=O)NC1CCN(Cc2ccccc2)CC1)S(=O)(=O)c1ccc(Br)s1,-18
7,O=C(O)COCC(=O)NCc1nc(-c2ccc(C(F)(F)F)cc2)no1,19.1
8,CN(CC(=O)Nc1ccc(F)c(F)c1F)C(=O)CC1OC(=O)c2ccccc21 (centres unmarked),-27.6
9,COc1cccc(CN2CC(C(=O)NCCCn3ccnc3C)CCC2=O)c1 (centres unmarked),15.1
10,Cc1ccc(CNC(=O)CN2CCN(c3ccc(F)cc3)CC2)cc1,-50.8
11,COC(=O)C1=C(C)N(c2ccc(S(N)(=O)=O)cc2)C(=O)C1,7.89
12,CCOc1ccc(C(=O)C(C)OC(=O)Cn2c(C)csc2=O)cc1 (centres unmarked),-60.1
13,Cc1cc(F)ccc1S(=O)(=O)N(C(=O)c1ccncc1)c1ccc(OC(=O)c2ccncc2)cc1,-2.62
14,CCC(=O)Nc1ccc(C(=O)NCc2ccccn2)cc1,7.23
15,O=C(NC1CC1)c1sccc1-n1cccc1,8.56
16,O=C(COc1ccccc1Cl)N1CCCC1,5.64
17,O=C(CN(C(=O)Cn1nnc(-c2ccc(F)cc2)n1)C1CCCC1)NC1CCCC1,4.13
18,CCCn1nc(C(=O)OCC(=O)c2c(N)n(C)c(=O)n(C)c2=O)c2ccccc2c1=O,-22.9
